# Where “and” joins values, the source holds several entries; their conditions need not be identical. Equal entries are not always repeated. Screen size: about 410,000 compounds; about 6,400 (1.6%) were called active. Inconclusive results, whose numbers are uncertain, are shown with a selection of clear calls. Calls come from the whole dose curve; as a rule, active = well fitted inhibition curve with a large enough effect; inconclusive = small, poorly fitted or top-dose-only effect; inactive = no such curve, though single readings can be large or run the other way. A potency beside an inconclusive call is a rough fit, not a confirmed value.
# Target: Glucagon-like peptide 1 receptor (Homo sapiens) (UniProt P43220)
# Assay: qHTS of GLP-1 Receptor Inverse Agonists (Inhibition Mode); note: nearly all actives have a fitted effect of over 55% in size
# Details: HEK293 GLP-1R CRE-luciferase, luminescence, 24 h, GLP-1R form is constitutively active; activity change, negative = inhibition: at 38.3 µM (top of the series) unless noted
# Method in brief: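 Cells are plated, allowed 12 hours at 37 deg C, then treated with compounds for 24 hr before luciferase detection reagent is added and luminescence is read after 12 min at room temperature. The HEK293 line carries constitutively active GLP-1R with a cAMP-responsive reporter.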
# % is set by controls: 0 for no effect and ±100 for the full control effect; potency is the fitted concentration of half-maximal effect; tags give direction and shape of the fitted curve.
# Chain of UniProt P43220 (P43220 whole entry, looked up): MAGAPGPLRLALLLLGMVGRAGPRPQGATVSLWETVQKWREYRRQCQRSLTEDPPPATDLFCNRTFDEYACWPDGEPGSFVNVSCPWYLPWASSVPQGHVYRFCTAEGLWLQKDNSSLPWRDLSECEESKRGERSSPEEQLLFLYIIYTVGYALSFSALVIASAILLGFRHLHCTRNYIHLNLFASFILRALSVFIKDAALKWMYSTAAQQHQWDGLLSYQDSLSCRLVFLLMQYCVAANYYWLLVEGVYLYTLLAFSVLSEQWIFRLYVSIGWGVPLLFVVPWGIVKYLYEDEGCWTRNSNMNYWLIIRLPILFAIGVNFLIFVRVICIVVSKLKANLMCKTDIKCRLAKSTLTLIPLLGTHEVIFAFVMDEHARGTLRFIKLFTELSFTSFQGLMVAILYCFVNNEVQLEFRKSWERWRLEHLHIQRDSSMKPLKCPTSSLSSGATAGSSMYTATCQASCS
SMILES,Potency,"activity change, negative = inhibition"
CC[C@@]12C(=O)N(c3cccc(Cl)c3)C(=O)N1[C@H](c1cccc(C)c1)[C@@H]1C(=O)N(Cc3ccccc3)C(=O)[C@@H]12,"inconclusive: 20 µM [inhibitor, single point]",
CCc1nc2c(OCCc3cccc(OC)c3)cccn2c1N(C)C(=O)c1cccs1,"inconclusive: 10 µM [inhibitor, single point]",
Cc1cccc(NS(=O)(=O)c2cc(C(=O)N3CCCCCC3)ccc2C)c1,"inconclusive: 3.55 µM [inhibitor, partial curve, poor fit]",
CC(C)C12CN3CC(C(C)C)(CN(C1)C3c1ccccc1O)C2=O (configuration not stated),"inconclusive: 28.2 µM [inhibitor, single point]",
O=C(CSc1nc2ccccc2s1)Nc1ccc(N2CCOCC2)c(Cl)c1,"inconclusive: 12.6 µM [inhibitor, partial curve, poor fit]",
Cc1ccc(Cl)cc1NC(c1ccc(F)cc1)c1nnc(-c2ccccc2)o1 (configuration not stated),"inconclusive: 7.94 µM [inhibitor, partial curve, poor fit]",
Cc1ccn2c(Nc3ccc4c(c3)OCCO4)c(-c3cccs3)nc2c1,"inconclusive: 25.1 µM [inhibitor, single point]",
Cc1ccc2onc(CNC(=O)Nc3cc(F)ccc3F)c2c1,"inconclusive: 31.6 µM [inhibitor, single point]",
O=C(CC1NCCc2ccccc21)Nc1ccc(Cl)cc1 (configuration not stated),"inconclusive: 12.6 µM [inhibitor, partial curve, poor fit]",
CC(C)CC(C(=O)O)N(Cc1ccccc1)Cc1ccccc1 (configuration not stated),"inconclusive: 8.91 µM [inhibitor, partial curve, poor fit]",
CCc1ccc(C2CC(=O)c3c([nH]c(C(=O)OCCOc4ccccc4)c3C)C2)cc1 (configuration not stated),"inconclusive: 3.55 µM [inhibitor, full curve, poor fit]",
CSc1cccc(NC(=S)N(C(C)C)C(C)c2ccccn2)c1 (configuration not stated),"inconclusive: 31.6 µM [inhibitor, single point]",
CC(C)NC[C@@H](O)COc1ccc(CC(N)=O)cc1,"inconclusive: 28.2 µM [inhibitor, single point]",
Cc1ccccc1OCCn1c(C)nc2ccccc21,"inconclusive: 28.2 µM [inhibitor, single point]",
C=CCc1cccc(/C=N/NC(=O)CCCNc2ccc(C)cc2)c1O,active: 10 µM,
O=C(c1ccc(CS(=O)Cc2ccc(Cl)cc2)o1)N1CCN(c2ccccc2F)CC1 (configuration not stated),"inconclusive: 10 µM [inhibitor, partial curve]",
COCOCCn1cc(CN2CCS(=O)(=O)N(Cc3ccc(-c4ccc(OC)cc4)cc3)C(CC(C)C)C2=O)nn1 (configuration not stated),"inconclusive: 28.2 µM [inhibitor, single point]",
Cc1cc(C)c2nc(N3CCCC(C(=O)NCCCN4CCOCC4)C3)sc2c1 (configuration not stated),"inconclusive: 28.2 µM [inhibitor, single point]",
COCc1ccc(C(=O)N2CCCC(Nc3ccc(C(C)C)cc3)C2)s1 (configuration not stated),"inconclusive: 22.4 µM [inhibitor, partial curve, poor fit]",
CC(C)c1ccc(C2c3c(-c4ccccc4O)n[nH]c3C(=O)N2Cc2ccncc2)cc1 (configuration not stated),"inconclusive: 11.2 µM [inhibitor, single point]",
COc1cc(OC)cc(C(=O)NNC(=O)c2ccc3ccccc3n2)c1,"inconclusive: 2.24 µM [inhibitor, partial curve, poor fit]",

SMILES,Potency,"activity change, negative = inhibition"
COc1ccc(N(CC(=O)NCc2ccc(Cl)cc2)S(=O)(=O)c2ccccc2[N+](=O)[O-])c(OC)c1,"inconclusive: 11.2 µM [inhibitor, partial curve, poor fit]",
COc1ccc(C(=O)Nc2nnc(C)s2)cc1,inactive,
COc1cc2c(cc1OC)CN(Cc1ccccc1)CC2,inactive,
CC(C)Cn1c(=O)c2ccccc2n2c(CCC(=O)N3CCN(c4ccccc4)CC3)nnc12,inactive,
Nc1ccccc1C(O)(Cc1ccccc1)c1ccccc1 (configuration not stated),,inconclusive: -77.5% [inhibitor]
COc1ccc(NC(=O)Cn2c(=O)n(CCCC(=O)NCCc3ccc(C)cc3)c(=O)c3ccccc32)cc1Cl,inactive,
CCOC(=O)N1CCC(NC(=O)CSCc2nc(-c3ccccc3Cl)oc2C)CC1,"inconclusive: 28.2 µM [inhibitor, single point]",
CCCCN1C(=O)C2(OCCCO2)c2cccc(C)c21,"inconclusive: 22.4 µM [inhibitor, single point]",
Cc1ccc(C)c(N2CCN(CCCNC(=O)Cn3cc4c(n3)CCCCC4)CC2)c1,"inconclusive: 11.2 µM [inhibitor, partial curve, poor fit]",
Cc1ccccc1CS(=O)(=O)CCC(=O)NCCN1CCN(c2cccc(Cl)c2)CC1,"inconclusive: 12.6 µM [inhibitor, single point]",
CCc1nc2c(OCc3ccc(C(F)(F)F)cc3)cccn2c1N(C=O)Cc1ccc(OC)cc1,"inconclusive: 10 µM [inhibitor, partial curve]",
COc1ccc(-c2csc(N(C)C(=O)c3cccs3)n2)cc1,inactive,
COC(=O)c1ccc(CNC(=O)c2cc(COc3cncc(Cl)c3)on2)cc1,"inconclusive: 2.24 µM [inhibitor, partial curve, poor fit]",
COc1cc(OC)cc(C(=O)Nc2ccc3nc(Nc4cccc(C(F)(F)F)c4)cc(C)c3c2)c1,"inconclusive: 2.51 µM [inhibitor, full curve, poor fit]",
COc1ccc(-c2oc3ccc(N4CCOCC4)cc3c2C#Cc2ccc(N)cc2)cc1,"inconclusive: 3.16 µM [inhibitor, partial curve, poor fit]",
C/C(=N\NC(=O)c1nnn(-c2nonc2N)c1CN(C)c1ccccc1)c1ccc(O)cc1,"inconclusive: 11.2 µM [inhibitor, single point]",
CC(=O)Nc1ccc(C(=O)CSc2nccc(=O)[nH]2)cc1,"inconclusive: 2 µM [inhibitor, partial curve, poor fit]",
COc1ccc(/C=N/Nc2nc(Nc3ccccc3)nc(N3CCCC3)n2)cc1,,inactive: 13.2% [at 7.66 µM]
CC1CCCCN1CCNC(=O)c1ccc2c(c1)N(Cc1ccccc1F)C(=O)c1ccccc1S2=O (configuration not stated),"inconclusive: 11.2 µM [inhibitor, partial curve, poor fit]",
O=C(NCC(c1ccc(Cl)cc1)N1CCCCC1)c1ccccc1F (configuration not stated),inactive,
Clc1ccccc1CN1CCN(/N=C/c2ccncc2)CC1,"inconclusive: 10 µM [inhibitor, single point]",

SMILES,Potency,"activity change, negative = inhibition"
O=C1CN(C(=O)c2ccco2)C(c2ccc(F)cc2)c2cc(Cl)ccc2N1 (configuration not stated),"inconclusive: 14.1 µM [inhibitor, partial curve, poor fit]",
CCCCN1CCNC[C@@H]1Cc1ccc(O)cc1,inactive,
Cc1ccccc1NC(=O)[C@H](CSCc1ccccc1)N1Cc2ccccc2C1=O,"inconclusive: 28.2 µM [inhibitor, single point]",
Cc1ccccc1NC(=O)N1CCC(C(=O)c2ccc(F)cc2)CC1,"inconclusive: 10 µM [inhibitor, partial curve]",
COc1ccc(-c2cc(NC=O)c3ncc(-c4ccccc4)n3c2)cc1OC,inactive,
O=C(CSC(=S)N1CCCC1)Nc1ccc(Br)cc1Cl,"inconclusive: 7.08 µM [inhibitor, partial curve, poor fit]",
C=CCN(CC=C)S(=O)(=O)c1ccc(NC(=S)NC(=O)/C=C/c2ccccc2)cc1,inactive,
C/C(=C\c1ccccc1)CN1CCC(C(=O)N2CCCCC2)CC1,inactive,
Cc1[nH]c2ccccc2c1C1(O)C(=O)N(Cc2ccccc2Cl)c2ccccc21 (configuration not stated),"inconclusive: 28.2 µM [inhibitor, single point]",
O=C(CSc1nccc(-c2cccs2)n1)Nc1ccc(F)c(Cl)c1,"inconclusive: 28.2 µM [inhibitor, single point]",
O=C(CCN1C(=O)c2ccccc2C1=O)Nc1cccc(O)c1,inactive,
COCC(C)NC(=O)CCSc1nc(-c2ccc(OC)cc2)cc(C(F)(F)F)n1 (configuration not stated),"inconclusive: 28.2 µM [inhibitor, single point]",
COC(=O)c1ccc(C(=O)OC)c(NC(=O)c2cnn3c(C(F)F)cc(-c4ccccc4)nc23)c1,inactive,
COc1ccc(C(CNC(=O)CN(C)S(=O)(=O)c2ccc(C)cc2)N2CCCC2)cc1 (configuration not stated),"inconclusive: 3.16 µM [inhibitor, partial curve]",
C[n+]1c(/C=C/c2ccc3c(c2)OCO3)ccc2ccccc21,"inconclusive: 2 µM [inhibitor, full curve]",
CC(CCN1CCN(c2ccccn2)CC1)c1ccccc1 (configuration not stated),"inconclusive: 28.2 µM [inhibitor, single point]",
O=C(CN1C(=O)NC2(CCc3ccccc32)C1=O)NCc1cccc(C(F)(F)F)c1 (configuration not stated),"inconclusive: 10 µM [inhibitor, single point]",
COc1ccc(CNC(=O)c2ccc(C(C)(C)C)cc2)cc1,"inconclusive: 31.6 µM [inhibitor, single point]",
CCN(Cc1ccccc1)C(=O)c1nn(-c2ccc(OC)cc2)c(=O)c2c1c1ccccc1n2C,"inconclusive: 22.4 µM [inhibitor, single point] and inconclusive: 10 µM [inhibitor, partial curve, poor fit]",
COc1ccc2cc(C(=O)N3CCN(Cc4ccc5c(c4)OCO5)CC3)[nH]c2c1,"inconclusive: 1.26 µM [inhibitor, full curve, poor fit]",
